Test results from the supplement of paper PMC12355420.
Structures can show the parent of a compound that is named as a salt. The list shows a part of the results. Single values are uncertain, as repeats are few or missing.

Each compound was assayed on HeLa VPS33A reporter cells (assay: relative cell viability (CellMask signal) vs DMSO (fraction of DMSO); HeLa model of a glycosaminoglycan (GAG) storage disease; KI is knock-in and KO knock-out; SDC1 is syndecan 1; higher = less cytotoxic). Conditions: 50 µM; 24 h.
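Note: primary screen of an FDA-approved drug library in HeLa reporter cells in 96-well format, CellMask signal normalized to DMSO-treated wells set as 1, under 0.5 deemed highly cytotoxic.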

Row | Structure (SMILES) | relative cell viability
1 | Cc1ccc2c(c1)c1c(n2CCc2ccc(C)nc2)CCN(C)C1 [Latrepirdine] | 1.03
2 | CCCCC(=O)N(Cc1ccc(-c2ccccc2-c2nnn[nH]2)cc1)[C@H](C(=O)O)C(C)C.CCOC(=O)[C@H](C)C[C@@H](Cc1ccc(-c2ccccc2)cc1)NC(=O)CCC(=O)O | 1.02
3 | C[C@@H](CN1CC(=O)NC(=O)C1)N1CC(=O)NC(=O)C1 [Dexrazoxane HCl (ICRF-187, ADR-529)] | 1.26
4 | Nc1nc(F)nc2c1ncn2[C@@H]1O[C@H](CO)[C@@H](O)[C@@H]1O [Fludarabine] | 1.05
5 | Cc1cc(C(C)(C)C)c(O)c(C(C)(C)C)c1 | 1.07
6 | O=C(O)c1cccc(-c2noc(-c3ccccc3F)n2)c1 [PTC124 (Ataluren)] | 1.19
7 | COc1ccc2c3c1O[C@H]1C[C@@H](O)C=C[C@@]31CCN(C)C2 [Galanthamine HBr] | 1.13
8 | CC1(C)S[C@@H]2[C@H](NC(=O)Cc3ccccc3)C(=O)N2[C@H]1C(=O)O [Penicillin G Sodium] | 1.11
9 | CCCCC1C(=O)N(c2ccccc2)N(c2ccccc2)C1=O [Phenylbutazone] | 0.993
10 | CNNCc1ccc(C(=O)NC(C)C)cc1 [Procarbazine HCl] | 0.998
11 | CCOC(=O)Nc1ccc(NCc2ccc(F)cc2)nc1N [Flupirtine maleate] | 1.18
12 | CC[C@H]1OC(=O)[C@H](C)[C@@H](O[C@H]2C[C@@](C)(OC)[C@@H](O)[C@H](C)O2)[C@H](C)[C@@H](O[C@@H]2O[C@H](C)C[C@H](N(C)C)[C@H]2O)[C@](C)(OC)C[C@@H](C)C(=O)[C@H](C)[C@@H](O)[C@]1(C)O [Clarithromycin] | 1.01
13 | CN(C)C(=O)COC(=O)Cc1ccc(OC(=O)c2ccc(NC(=N)N)cc2)cc1 [Camostat Mesilate] | 0.981
14 | C[C@@H]1O[C@@H](Oc2c(-c3ccc(O)c(O)c3)oc3cc(O)cc(O)c3c2=O)[C@H](O)[C@H](O)[C@H]1O [Quercitrin] | 1.06
15 | COCCCOc1ccnc(C[S+]([O-])c2nc3ccccc3[nH]2)c1C (stereo unspecified) [Rabeprazole] | 1.01
16 | Oc1c(Cl)cc(Cl)c(Cl)c1Cc1c(O)c(Cl)cc(Cl)c1Cl [Hexachlorophene] | 0.919
17 | N[C@@H](CSCCCO)C(=O)O [Fudosteine] | 0.931
18 | FC(F)(F)c1ccc(CNc2ccc(Cc3c[nH]c4ncc(Cl)cc34)cn2)cn1 [Pexidartinib (PLX3397)] | 1.15

Row | Structure (SMILES) | relative cell viability
19 | C[C@]12CC[C@@H]3c4ccc(O)cc4CC[C@H]3[C@@H]1CC[C@@H]2OC(=O)CCC1CCCC1 [Estradiol Cypionate] | 1.03
20 | CCOC(=O)N1c2ccc(C(F)(F)F)cc2[C@@H](N(Cc2cc(C(F)(F)F)cc(C(F)(F)F)c2)C(=O)OC)C[C@H]1CC [Torcetrapib] | 1
21 | CN1CCC(=C2c3ccccc3CCc3sccc32)CC1 [Pizotifen] | 1.29
22 | O=c1cc[nH]c(=S)[nH]1 [2-Thiouracil] | 1.1
23 | O=C(O)c1ccc(C(=O)O)cc1 [Terephthalic acid] | 1.11
24 | Cc1ccc(Nc2c(F)cccc2Cl)c(CC(=O)O)c1 [Lumiracoxib] | 0.991
25 | CCN(CC)C(=O)C1(c2ccccc2)CC1CN (stereo unspecified) [Milnacipran HCl] | 0.94
26 | O=C(O)/C=C/c1ccccc1 [Cinnamic acid] | 1.12
27 | O=C(NCC1CCCCN1)c1cc(OCC(F)(F)F)ccc1OCC(F)(F)F (stereo unspecified) [Flecainide acetate] | 1.16
28 | C[C@]12CC[C@@H]3c4ccc(O)cc4CC[C@H]3[C@@H]1CCC2=O [Estrone] | 1.09
29 | OC(CCN1CCCCC1)(c1ccccc1)c1ccccc1 [Pridinol Methanesulfonate] | 1.08
30 | CN1CC(=O)NC1=N [Creatinine] | 1.1
31 | O=C1c2ccccc2C(=O)C1c1ccccc1 [Phenindione] | 0.854
32 | CC(C)(C)C(O)/C=C/c1ccc2c(c1)OCO2 (stereo unspecified) [Stiripentol] | 0.96
33 | CC(=O)CC(c1ccccc1)c1c(O)c2ccccc2oc1=O (stereo unspecified) [Warfarin] | 1.01
34 | O=C(O)COCCN1CCN(C(c2ccccc2)c2ccc(Cl)cc2)CC1 (stereo unspecified) [Cetirizine] | 1.01
35 | CCCCN1CCCC[C@H]1C(=O)Nc1c(C)cccc1C [Levobupivacaine HCl] | 0.956
36 | Cn1c(=O)c2c(ncn2CC(O)CO)n(C)c1=O (stereo unspecified) [Dyphylline] | 1.26
